Source: the supplement of paper PMC4967469

Columns and labels:
Assay in all cases: Viability of human cancer cell lines after 72 h of drug (GDSC screen)
PD-0332991 = compound: CC(=O)c1c(C)c2cnc(Nc3ccc(N4CCNCC4)cn3)nc2n(C2CCCC2)c1=O [PD-0332991]
Description: (§1)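 Human cancer cell lines in 384-well plates, medium with 10% serum, drug for 72 h over a 256-fold dose range (nine 2-fold or five 4-fold steps up to the top dose). Adherent lines were fixed and stained with the nucleic acid dye Syto60, suspension lines read with resazurin; signal relative to control wells, capped at 0 and 100%. One two-parameter sigmoid per drug and line, fitted in a mixed model over all curves with the slope shared within a line.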

ZM-447439 = compound: COc1cc2c(Nc3ccc(NC(=O)c4ccccc4)cc3)ncnc2cc1OCCCN1CCOCC1 [ZM-447439]; details: top dose inferred
Description: as §1

AZD6244 = compound: Cn1cnc2c(F)c(Nc3ccc(Br)cc3Cl)c(C(=O)NOCCO)cc21 [AZD6244]; details: screen: GDSC drug entry 1062
Description: as §1

Cell Line | AUC (PD-0332991) | IC50 (PD-0332991) [µM] | AUC (ZM-447439) | IC50 (ZM-447439) [µM] | AUC (AZD6244) | IC50 (AZD6244) [µM]
SNG-M (endometrium, adherent, top dose 4 µM) | 0.929 | > 4 | 0.912 | > 4 | 0.96 | > 4
SNU-61 (large intestine, adherent, top dose 4 µM) | 0.959 | > 4 | 0.945 | > 4 | 0.978 | > 4
SNU-81 (large intestine, adherent, top dose 4 µM) | 0.841 | > 4 | 0.811 | 3.09 | 0.935 | > 4
SNU-387 (liver, adherent, top dose 4 µM) | 0.826 | 2.88 | 0.953 | > 4 | 0.98 | > 4
SNU-407 (large intestine, adherent, top dose 4 µM) | 0.823 | 2.89 | 0.811 | 2.57 | 0.949 | > 4
SNU-449 (liver, adherent, top dose 4 µM) | 0.889 | > 4 | 0.97 | > 4 | 0.986 | > 4
SNU-C1 (large intestine, suspension, top dose 4 µM) | 0.83 | > 4 | 0.913 | > 4 | 0.901 | > 4
SNU-C2B (large intestine, adherent, top dose 4 µM) | 0.961 | > 4 | 0.972 | > 4 | 0.879 | > 4
SNU-C5 (large intestine, adherent, top dose 4 µM) | 0.875 | > 4 | 0.957 | > 4 | 0.986 | > 4
SR (lymphoid neoplasm, suspension, top dose 4 µM) | 0.752 | 1.21 | 0.804 | 1.77 | 0.892 | 3.89
ST486 (Burkitt lymphoma, suspension, top dose 4 µM) | 0.98 | > 4 | 0.924 | > 4 | 0.942 | > 4
STS-0421 (soft tissue, adherent, top dose 4 µM) | 0.95 | > 4 | 0.973 | > 4 | 0.98 | > 4
SU-DHL-4 (B-cell lymphoma, suspension, top dose 4 µM) | 0.997 | > 4 | 0.997 | > 4 | 0.997 | > 4
SU-DHL-5 (B-cell lymphoma, suspension, top dose 4 µM) | 0.859 | 2.08 | 0.694 | 0.75 | 0.99 | > 4
SU-DHL-6 (B-cell lymphoma, suspension, top dose 4 µM) | 0.415 | 0.156 | 0.94 | > 4 | 0.995 | > 4
SU-DHL-8 (B-cell lymphoma, suspension, top dose 4 µM) | 0.98 | > 4 | 0.91 | > 4 | 0.982 | > 4
SU-DHL-10 (B-cell lymphoma, suspension, top dose 4 µM) | 0.738 | 0.941 | 0.75 | 1.01 | 0.977 | > 4
SU-DHL-16 (B-cell lymphoma, suspension, top dose 4 µM) | 0.983 | > 4 | 0.883 | 2.32 | 0.995 | > 4
SUIT-2 (pancreas, adherent, top dose 2 µM) | 0.715 | 0.526 | 0.975 | > 2 | 0.647 | 0.326
SUP-B8 (B-cell leukaemia, suspension, top dose 4 µM) | 0.78 | 1.63 | 0.901 | > 4 | 0.989 | > 4
SUP-B15 (lymphoblastic leukaemia, suspension, top dose 4 µM) | 0.867 | 3.34 | 0.819 | 2.14 | 0.977 | > 4
SUP-HD1 (Hodgkin lymphoma, suspension, top dose 4 µM) | 0.912 | > 4 | 0.972 | > 4 | 0.981 | > 4

Cell Line | AUC (PD-0332991) | IC50 (PD-0332991) [µM] | AUC (ZM-447439) | IC50 (ZM-447439) [µM] | AUC (AZD6244) | IC50 (AZD6244) [µM]
SUP-M2 (anaplastic large cell lymphoma, suspension, top dose 4 µM) | 0.976 | > 4 | 0.79 | 1.34 | 0.993 | > 4
SUP-T1 (T-cell lymphoblastic leukaemia, suspension, top dose 4 µM) | 0.982 | > 4 | 0.952 | > 4 | 0.969 | > 4
SW48 (large intestine, adherent, top dose 4 µM) | 0.923 | > 4 | 0.741 | 1.22 | 0.947 | > 4
SW620 (large intestine, adherent, top dose 4 µM) | 0.796 | 1.63 | 0.947 | > 4 | 0.987 | > 4
SW684 (fibrosarcoma, adherent, top dose 4 µM) | 0.965 | > 4 | 0.983 | > 4 | 0.96 | > 4
SW756 (cervix, adherent, top dose 4 µM) | 0.978 | > 4 | 0.937 | > 4 | 0.88 | > 4
SW780 (bladder, adherent, top dose 4 µM) | 0.698 | 0.954 | 0.836 | 3.01 | 0.625 | 0.57
SW948 (large intestine, adherent, top dose 4 µM) | 0.971 | > 4 | 0.962 | > 4 | 0.941 | > 4
SW954 (urogenital system, adherent, top dose 4 µM) | 0.65 | 0.656 | 0.695 | 0.889 | 0.69 | 0.859
SW962 (urogenital system, adherent, top dose 4 µM) | 0.628 | 0.615 | 0.919 | > 4 | 0.812 | 2.83
SW982 (soft tissue, adherent, top dose 4 µM) | 0.813 | 2.25 | 0.886 | > 4 | 0.865 | 3.73
SW1710 (bladder, adherent, top dose 4 µM) | 0.743 | 1.28 | 0.871 | 3.98 | 0.836 | 2.78
SW1783 (glioma, adherent, top dose 4 µM) | 0.991 | > 4 | 0.981 | > 4 | 0.989 | > 4
Saos-2 (osteosarcoma, adherent, top dose 4 µM) | 0.946 | > 4 | 0.925 | > 4 | 0.945 | > 4
T84 (large intestine, adherent, top dose 4 µM) | 0.989 | > 4 | 0.987 | > 4 | 0.983 | > 4
T98G (glioma, adherent, top dose 4 µM) | 0.769 | 1.4 | 0.889 | – | 0.95 | > 4
T-T (oesophagus, adherent, top dose 4 µM) | 0.843 | 2.8 | 0.888 | > 4 | 0.967 | > 4
TC-71 (Ewing sarcoma, adherent, top dose 4 µM) | 0.944 | > 4 | 0.792 | 1.48 | 0.992 | > 4
TC-YIK (cervix, suspension, top dose 4 µM) | 0.991 | > 4 | 0.741 | 1.09 | 0.991 | > 4
TCCSUP (bladder, adherent, top dose 4 µM) | 0.92 | > 4 | 0.915 | > 4 | 0.972 | > 4
TE-1 (oesophagus, adherent, top dose 4 µM) | 0.982 | > 4 | 0.932 | > 4 | 0.935 | > 4
TE-4 (oesophagus, adherent, top dose 4 µM) | 0.918 | > 4 | 0.878 | > 4 | 0.987 | > 4

Cell Line | AUC (PD-0332991) | IC50 (PD-0332991) [µM] | AUC (ZM-447439) | IC50 (ZM-447439) [µM] | AUC (AZD6244) | IC50 (AZD6244) [µM]
TE-5 (oesophagus, adherent, top dose 4 µM) | 0.864 | > 4 | 0.96 | > 4 | 0.903 | > 4
TE-6 (oesophagus, adherent, top dose 4 µM) | 0.896 | > 4 | 0.973 | > 4 | 0.966 | > 4
TE-8 (oesophagus, adherent, top dose 4 µM) | 0.715 | 1.06 | 0.844 | 3.17 | 0.858 | 3.67
TE-9 (oesophagus, adherent, top dose 4 µM) | 0.963 | > 4 | 0.846 | 3.09 | 0.977 | > 4
TE-10 (oesophagus, adherent, top dose 4 µM) | 0.909 | > 4 | 0.939 | > 4 | 0.934 | > 4
TE-11 (oesophagus, adherent, top dose 4 µM) | 0.9 | > 4 | 0.813 | 1.92 | 0.884 | 3.68
TE-12 (oesophagus, suspension, top dose 4 µM) | 0.958 | > 4 | 0.943 | > 4 | 0.759 | 1.68
TE-15 (oesophagus, suspension, top dose 4 µM) | 0.862 | > 4 | 0.917 | > 4 | 0.964 | > 4
TGBC1TKB (biliary tract, adherent, top dose 4 µM) | 0.867 | 3.57 | 0.96 | > 4 | 0.934 | > 4
TGBC11TKB (stomach, adherent, top dose 4 µM) | 0.992 | > 4 | 0.969 | > 4 | 0.992 | > 4
TGW (neuroblastoma, adherent, top dose 4 µM) | 0.731 | 1.02 | 0.887 | 3.36 | 0.989 | > 4
TK10 (kidney, adherent, top dose 4 µM) | 0.797 | 2.35 | 0.948 | > 4 | 0.86 | > 4
TK (B-cell lymphoma, suspension, top dose 4 µM) | 0.99 | > 4 | 0.968 | > 4 | 0.99 | > 4
TMK-1 (stomach, adherent, top dose 4 µM) | 0.89 | > 4 | 0.941 | > 4 | 0.986 | > 4
TOV-21G (ovary, adherent, top dose 4 µM) | 0.772 | 1.69 | 0.755 | 1.46 | 0.943 | > 4
TT2609-C02 (thyroid, adherent, top dose 4 µM) | 0.593 | 0.459 | 0.719 | 1.09 | 0.392 | 0.123
TUR (B-cell lymphoma, suspension, top dose 4 µM) | 0.588 | 0.428 | 0.794 | 1.68 | 0.939 | > 4
U-87-MG (glioma, adherent, top dose 4 µM) | 0.914 | > 4 | 0.932 | > 4 | 0.918 | > 4
U-118-MG (glioma, adherent, top dose 4 µM) | 0.849 | 3.74 | 0.93 | > 4 | 0.93 | > 4
U-266 (myeloma, semi-adherent, top dose 4 µM) | 0.882 | > 4 | 0.766 | 2.01 | 0.596 | 0.501

The IC50 comes from the fitted curve, where viability falls to half of the control; a limit (>, <) means that the fit lies beyond the doses tested. AUC, from the same fit, is the share of area under the viability curve across the 256-fold dose range; it is 1 without any effect and falls as sensitivity rises. For some assays here: A top dose marked as inferred was derived from the fitted curves, not read from the paper. For some assays here: Where an entry number is given, a second screen of the drug exists; the two often differ.
